Out of some 310,000 compounds screened, about 14,000 (4.5%) showed an effect of 50% or more. Effects have a minus sign here. The list shows a part of the results.
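Note: peak tail current of the secondary pulse compared with the same well before compound.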

The target in this experiment is human ether-à-go-go-related gene (hERG) potassium channel (human, UniProt Q12809). The experiment can be described thus: primary screen, population patch clamp on CHO cells stably expressing hERG.
human ether-à-go-go-related gene (hERG) potassium channel, sequence (Q12809 whole entry, looked up): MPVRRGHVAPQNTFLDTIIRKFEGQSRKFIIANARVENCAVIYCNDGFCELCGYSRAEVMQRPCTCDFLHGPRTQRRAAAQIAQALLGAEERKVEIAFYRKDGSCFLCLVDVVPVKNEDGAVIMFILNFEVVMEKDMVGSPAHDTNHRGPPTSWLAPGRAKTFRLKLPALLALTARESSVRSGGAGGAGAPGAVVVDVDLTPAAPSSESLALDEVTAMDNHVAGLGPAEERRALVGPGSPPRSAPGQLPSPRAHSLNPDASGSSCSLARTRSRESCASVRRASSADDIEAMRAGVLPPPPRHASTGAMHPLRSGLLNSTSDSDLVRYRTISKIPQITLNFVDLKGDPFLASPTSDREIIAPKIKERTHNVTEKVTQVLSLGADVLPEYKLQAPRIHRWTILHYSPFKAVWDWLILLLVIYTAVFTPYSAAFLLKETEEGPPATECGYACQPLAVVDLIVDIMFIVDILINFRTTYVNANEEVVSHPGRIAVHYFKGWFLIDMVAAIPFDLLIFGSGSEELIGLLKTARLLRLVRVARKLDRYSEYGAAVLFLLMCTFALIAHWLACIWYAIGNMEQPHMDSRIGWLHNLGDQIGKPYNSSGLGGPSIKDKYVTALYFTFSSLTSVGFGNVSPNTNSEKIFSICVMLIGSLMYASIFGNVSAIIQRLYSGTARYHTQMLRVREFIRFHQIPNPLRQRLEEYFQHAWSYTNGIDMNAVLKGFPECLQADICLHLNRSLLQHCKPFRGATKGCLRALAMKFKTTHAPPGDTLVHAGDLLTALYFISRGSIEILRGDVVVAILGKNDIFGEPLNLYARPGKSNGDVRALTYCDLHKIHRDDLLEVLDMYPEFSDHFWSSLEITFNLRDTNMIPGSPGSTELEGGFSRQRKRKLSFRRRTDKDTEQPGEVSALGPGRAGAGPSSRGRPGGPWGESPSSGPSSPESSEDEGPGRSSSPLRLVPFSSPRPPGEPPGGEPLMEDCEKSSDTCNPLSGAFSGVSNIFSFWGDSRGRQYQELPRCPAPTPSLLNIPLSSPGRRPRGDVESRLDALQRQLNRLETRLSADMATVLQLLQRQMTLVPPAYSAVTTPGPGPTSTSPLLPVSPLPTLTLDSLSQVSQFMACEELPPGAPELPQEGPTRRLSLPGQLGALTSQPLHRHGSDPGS
As to `Cn1c(=O)c([N+](=O)[O-])c(NCc2ccccc2)c2ccccc21`, the “hERG current change (%, negative = inhibition) at 10uM” value stood at 9.94%.

Regarding `COCc1cc(CN2CCN(CCCc3ccccc3)C(CCO)C2)ccc1OC` (centres unmarked), the “hERG current change (%, negative = inhibition) at 10uM” value is -66.1%.

On to `Cc1cccc(Oc2ccc(NC(=O)C3=CC=CN4CCS(=O)(=O)N=C34)cc2)c1`, for which the “hERG current change (%, negative = inhibition) at 10uM” value came out at 8.71%.

As to `CCCC(=O)Nc1nnc(SCC(=O)N2CCN(c3ccccc3)CC2)s1`, the “hERG current change (%, negative = inhibition) at 10uM” value is recorded as 24.5%.

As for `COc1ccccc1C(=O)Oc1ccc(N2C(=O)CCC2=O)cc1`, the “hERG current change (%, negative = inhibition) at 10uM” value is reported as -0.543%.

With `C/C=C\C(=O)Nc1cccc(C2=NOC3(C2)C[C@H](C(N)=O)N(C(=O)[C@H]2CCC(=O)N2)C3)c1` (some centres unmarked), the “hERG current change (%, negative = inhibition) at 10uM” value is reported as -7.15%.

For the molecule `Cn1ncc(N=Cc2c(O)ccc3ccccc23)c1C(=O)Nc1cccc(Cl)c1`, the “hERG current change (%, negative = inhibition) at 10uM” value was 18.9%.

As for `CS(=O)(=O)N(CC(=O)NCC1CCCO1)c1cc(Cl)cc(Cl)c1` (centres unmarked), the “hERG current change (%, negative = inhibition) at 10uM” value amounted to 2.03%.

For `Cc1ccc(CSCc2ccc(C(=O)NCC3CCCO3)o2)cc1` (centres unmarked), the “hERG current change (%, negative = inhibition) at 10uM” value was -28.8%.

For the molecule `COc1ccc(OCC(=O)N2CCN(C(=O)c3cccc4ccccc34)CC2)cc1`, the “hERG current change (%, negative = inhibition) at 10uM” value is -22%.

Consider `O=S(=O)(c1ccc(N2CCCC2)nc1)N1CCCC1`, for which the “hERG current change (%, negative = inhibition) at 10uM” value worked out at 8.29%.

Take `O=C(NNC(=O)C1CC=CCC1)c1cccc(Br)c1` (centres unmarked): the “hERG current change (%, negative = inhibition) at 10uM” value came out at 16.4%.

Take `CCOc1ccc(S(=O)(=O)N2CCCC2)cc1`: the “hERG current change (%, negative = inhibition) at 10uM” value amounted to 3.2%.

As to `CC1CC(OCC(O)CN2CCCCC2C)CC(C)(C)C1.Cl` (centres unmarked), the “hERG current change (%, negative = inhibition) at 10uM” value is -25.8%.

On to `Cc1c(OCC(=O)N(C)C)ccc2c3c(c(=O)oc12)CCCCC3`, for which the “hERG current change (%, negative = inhibition) at 10uM” value is on record as -11.5%.

As for `O=C(NCc1ccccc1)C1(c2cccc(F)c2)CCCC1`, the “hERG current change (%, negative = inhibition) at 10uM” value turned out to be 4.62%.

For the molecule `CCCc1cc(C(=O)Nc2ccc(C(C)=O)cc2)no1`, the “hERG current change (%, negative = inhibition) at 10uM” value came to 1.35%.

Take `COC(CNC(=O)c1cc(Sc2nnc(C)s2)nc2ccccc12)OC`: the “hERG current change (%, negative = inhibition) at 10uM” value is -5.35%.

For `NS(=O)(=O)c1cnccc1Nc1cccc(F)c1`, the “hERG current change (%, negative = inhibition) at 10uM” value stood at 11.2%.

Consider `CCC(=O)Nc1nnc(S(=O)(=O)N(CC)c2ccc(OC)cc2)s1`, for which the “hERG current change (%, negative = inhibition) at 10uM” value is reported as 25.5%.

On to `O=C1CN(S(=O)(=O)c2cc(Cl)ccc2Cl)CCN1`, for which the “hERG current change (%, negative = inhibition) at 10uM” value turned out to be 8.51%.

In the case of `COc1ccc(-c2noc(CN3CCOCC3)n2)cc1OC`, the “hERG current change (%, negative = inhibition) at 10uM” value was -0.62%.

For `COc1ccc(NS(=O)(=O)c2cc(NC(=O)c3cnc(C)cn3)ccc2N2CCCC2)cc1`, the “hERG current change (%, negative = inhibition) at 10uM” value is given as -1.61%.

In the case of `O=C(c1ccco1)N1CCN(C2CC(=O)N(c3ccccc3)C2=O)CC1` (centres unmarked), the “hERG current change (%, negative = inhibition) at 10uM” value came out at 8.94%.

`CCOC(=O)c1sc(NC(=O)CCN2CCOCC2)c(C(=O)OCC)c1C`: the “hERG current change (%, negative = inhibition) at 10uM” value is recorded as -2.58%.

Consider `CCOC(=O)C1CCCN(c2c(NCCCN3CCCC(C)C3)c(=O)c2=O)C1` (centres unmarked), for which the “hERG current change (%, negative = inhibition) at 10uM” value came to 6.57%.

On to `Cc1ccc(S(=O)(=O)N2CCN(C3CCN(Cc4ccccc4)CC3)CC2)cc1.O=C(O)C(=O)O`, for which the “hERG current change (%, negative = inhibition) at 10uM” value was -76.6%.

As for `Cc1nc(NCc2ccco2)c2oc3ccccc3c2n1`, the “hERG current change (%, negative = inhibition) at 10uM” value is -29.8%.

`CC(C)(C)c1cc[n+](C2=C([O-])c3ccccc3C(=O)/C2=N\S(=O)(=O)c2cccs2)cc1`: the “hERG current change (%, negative = inhibition) at 10uM” value is listed as -44%.

Turning to `CCOC(=O)c1c(C)[nH]c(C)c1S(=O)(=O)NCC(=O)Nc1ccccn1`, the “hERG current change (%, negative = inhibition) at 10uM” value was 17.9%.

For `Cc1ccc(-c2csc(C3=C(O)CN(NC(=O)c4ccco4)C3=N)n2)cc1`, the “hERG current change (%, negative = inhibition) at 10uM” value is 11.1%.

On to `Cc1nnc(SCC(=O)c2ccc(Br)cc2)s1`, for which the “hERG current change (%, negative = inhibition) at 10uM” value is -4.08%.

Consider `O=C(COc1ccc(Cl)cc1)NC1CC1`, for which the “hERG current change (%, negative = inhibition) at 10uM” value came out at 5.47%.

Consider `COC(=O)c1cc(Cl)c(NC(=O)c2ccc(F)cc2)cc1OC`, for which the “hERG current change (%, negative = inhibition) at 10uM” value is on record as -2.56%.

`COc1ccc(-c2nn(-c3ccccc3)cc2/C=C/C(=O)OCC(=O)Nc2ccc(C#N)cc2)cc1`: the “hERG current change (%, negative = inhibition) at 10uM” value was 6.33%.

Regarding `O=C(NCCc1ccccc1)c1cccc(N2CCCC2=O)c1`, the “hERG current change (%, negative = inhibition) at 10uM” value turned out to be 2.77%.

For `CCN(CC)CCOC(=O)c1ccc(NC(=O)c2cccc(C)c2[N+](=O)[O-])cc1`, the “hERG current change (%, negative = inhibition) at 10uM” value is listed as -20.8%.

Consider `COc1cccc(C2C(C(=O)c3ccc(C)o3)=C(O)C(=O)N2CCN2CCOCC2)c1OC` (centres unmarked), for which the “hERG current change (%, negative = inhibition) at 10uM” value was 4.82%.

As for `COc1ccc2nc(C)cc(SCC(=O)N/N=C/c3ccccc3)c2c1`, the “hERG current change (%, negative = inhibition) at 10uM” value is on record as 4.1%.

Regarding `O=c1c2c(-c3cccs3)csc2ncn1/N=C/c1ccc(OC(F)F)cc1`, the “hERG current change (%, negative = inhibition) at 10uM” value was -5.38%.

As for `O=C(c1ccc(=O)oc1)N1CCOCC1`, the “hERG current change (%, negative = inhibition) at 10uM” value was found to be 18.7%.

In the case of `C=CCC(=O)N1CCC(n2nccc2NC(=O)CCOc2ccccc2)CC1`, the “hERG current change (%, negative = inhibition) at 10uM” value is given as 14.2%.

Turning to `O=C(NCc1nc2ccccc2[nH]1)C1=C[C@H](c2ccc(C(F)(F)F)cc2)C[C@H](OCCCCO)O1`, the “hERG current change (%, negative = inhibition) at 10uM” value was -40.4%.

`Cc1cc(C)nc(-n2cc(C(=O)c3cc(F)ccc3O)cn2)n1`: the “hERG current change (%, negative = inhibition) at 10uM” value turned out to be 9.85%.

On to `Cc1nn(Cc2ccc([N+](=O)[O-])cc2)c(=O)n1-c1ccccc1Cl`, for which the “hERG current change (%, negative = inhibition) at 10uM” value is -17.1%.

Consider `CCc1c(C)sc(NC(=O)C2CC2c2ccccc2)c1C(N)=O` (centres unmarked), for which the “hERG current change (%, negative = inhibition) at 10uM” value worked out at 9.05%.

Regarding `O=C1CCC(C(=O)N2CCN(c3ccc(F)cc3)CC2)CN1CC1CCCCC1` (centres unmarked), the “hERG current change (%, negative = inhibition) at 10uM” value is given as -41.9%.

As to `O=C1C2C3c4ccccc4C(c4ccccc43)C2C(=O)N1/N=C/c1cccc(O)c1` (centres unmarked), the “hERG current change (%, negative = inhibition) at 10uM” value stood at 10.1%.

In the case of `CCCOP(=O)(OCCC)C(Nc1ccc(C(C)C)cc1)c1ccc([N+](=O)[O-])cc1` (centres unmarked), the “hERG current change (%, negative = inhibition) at 10uM” value was determined as 3.7%.

As for `COc1ccc(C(=O)NCC2OCCc3ccccc32)cc1OC` (centres unmarked), the “hERG current change (%, negative = inhibition) at 10uM” value is 9.91%.

On to `CCCCC(=O)N/N=C/c1c(O)n(CCC2=CCCCC2)c(=O)[nH]c1=O`, for which the “hERG current change (%, negative = inhibition) at 10uM” value was 12.6%.

As for `CCN(CC)c1ccc(C(=O)NC(=S)N2CCN(Cc3ccc4c(c3)OCO4)CC2)cc1`, the “hERG current change (%, negative = inhibition) at 10uM” value stood at 6.26%.

Take `CCCCc1ccc(C(=O)O)nc1`: the “hERG current change (%, negative = inhibition) at 10uM” value stood at 11%.

As for `O=C(COc1ccc(S(=O)(=O)N2CCCC2)cc1)Nc1ccc2c(c1)OCCO2`, the “hERG current change (%, negative = inhibition) at 10uM” value came to 3.53%.

As to `Cc1cc(C=O)c(C)n1-c1cc(C(=O)O)cc(C(=O)O)c1`, the “hERG current change (%, negative = inhibition) at 10uM” value is 25.6%.

Take `O=[N+]([O-])c1cccc(/C=N/n2cnnc2)c1`: the “hERG current change (%, negative = inhibition) at 10uM” value is given as 2.94%.

These data come from publication PMC4336329 (PLoS ONE, 2015).
